The labels stand for the following.
B1: PhoQ; a variant is named by its letters at X, in order, P23837 (parent)
chain: MKKLLRLFFPLSLRVRFLLATAAVVLVLSLAYGMVALIGYSVSFDKTTFRLLRGESNLFYTLAKWENNKLHVELPENIDKQSPTMTLIYDENGQLLWAQRDVPWLMKMIQPDWLKSNGFHEIEADVNDTSLLLSGDHSIQQQLQEVREDDDDAEMTHSVAVNVYPATSRMPKLTIVVVDTIPVELKSSYMVWSWFIYVLSANLLLVIPLLWVAAWWSLRPIEALAKEVRELEEHNRELLNPATTRELTSLVRNLNRLLKSERERYDKYRTTLTDLTHSLKTPLXXLQXXLRSLRSEKMSVSDAEPVMLEQISRISQQIGYYLHRASMRGGTLLSRELHPVAPLLDNLTSALNKVYQRKGVNISLDISPEISFVGEQNDFVEVMGNVLDNACKYCLEFVEISARQTDEHLYIVVEDDGPGIPLSKREVIFDRGQRVDTLRPGQGVGLAVAREITEQYEGKIVAGESMLGGARMEVIFGRQHSAPKDE

The other results are listed elsewhere or left out. A value given as a limit tells only on which side of the number the result lay.

The assay covers variants of B1. The assay is described as follows: enrichment ratio after two sorts for PhoP signalling (ratio (wild type AVST 3.29)); higher = more functional. To be noted: with PhoP (E. coli).
For NWFT, the enrichment ratio was no more than 0.25.

As for ILCA, the enrichment ratio is no more than 0.25.

In the case of YMHM, the enrichment ratio is no more than 0.25.

On to SLEV, for which the enrichment ratio is no more than 0.25.

As for PIMW, the enrichment ratio was no more than 0.25.

As for TQSI, the enrichment ratio was determined as 11.7.

On to QVYF, for which the enrichment ratio was no more than 0.25.

Take LSLP: the enrichment ratio is no more than 0.25.

As for WKYQ, the enrichment ratio is no more than 0.25.

On to LEIS, for which the enrichment ratio was no more than 0.25.

For the variant LEVY, the enrichment ratio was no more than 0.25.

With EVFI, the enrichment ratio was no more than 0.25.

As for KMYF, the enrichment ratio was no more than 0.25.

Consider SMNS, for which the enrichment ratio is no more than 0.25.

On to PKPA, for which the enrichment ratio was no more than 0.25.

Take AMRK: the enrichment ratio was no more than 0.25.

On to GMGI, for which the enrichment ratio is no more than 0.25.

In the case of HWLA, the enrichment ratio was no more than 0.25.

With ADHH, the enrichment ratio was determined as 1.63.

In the case of YKKD, the enrichment ratio is no more than 0.25.

In the case of QEYS, the enrichment ratio came out at 37.

Take REKG: the enrichment ratio was no more than 0.25.

As to NFTD, the enrichment ratio is no more than 0.25.

In the case of KIIF, the enrichment ratio was no more than 0.25.

Turning to WNYH, the enrichment ratio was no more than 0.25.

Take WNRE: the enrichment ratio is no more than 0.25.

Regarding RPWV, the enrichment ratio is no more than 0.25.

YCVR: the enrichment ratio was no more than 0.25.

YKGD: the enrichment ratio was no more than 0.25.

As to TDSD, the enrichment ratio is no more than 0.25.

Regarding KTCY, the enrichment ratio was no more than 0.25.

For the variant EVFS, the enrichment ratio is no more than 0.25.

As to QDYA, the enrichment ratio is no more than 0.25.

For the variant SHVT, the enrichment ratio is no more than 0.25.

In the case of AMLG, the enrichment ratio was 7.12.

In the case of NNMA, the enrichment ratio was determined as 3.04.

Regarding WIAM, the enrichment ratio was no more than 0.25.

Consider YVAH, for which the enrichment ratio is no more than 0.25.

LKLP: the enrichment ratio was no more than 0.25.

For the variant TDWW, the enrichment ratio was no more than 0.25.

For the variant ERCV, the enrichment ratio was no more than 0.25.

Take PPIC: the enrichment ratio is no more than 0.25.

Regarding FRCW, the enrichment ratio was no more than 0.25.

For LVRI, the enrichment ratio is no more than 0.25.

Regarding FESR, the enrichment ratio was no more than 0.25.

Consider PMGG, for which the enrichment ratio is no more than 0.25.

On to CIRI, for which the enrichment ratio is no more than 0.25.

As for WGPY, the enrichment ratio is no more than 0.25.

In the case of KVSE, the enrichment ratio was no more than 0.25.

Turning to ENHC, the enrichment ratio is no more than 0.25.

TWRY: the enrichment ratio is no more than 0.25.

Consider VRHL, for which the enrichment ratio was no more than 0.25.

Regarding RCKM, the enrichment ratio is no more than 0.25.

As to LHHM, the enrichment ratio was no more than 0.25.

For the variant VNRW, the enrichment ratio is no more than 0.25.

Take TDFG: the enrichment ratio was no more than 0.25.

With HGAG, the enrichment ratio is no more than 0.25.

As for DHRD, the enrichment ratio was no more than 0.25.

Regarding HHTQ, the enrichment ratio was no more than 0.25.

Take MVAM: the enrichment ratio stood at 39.4.

Consider DWDG, for which the enrichment ratio was no more than 0.25.

With HTCG, the enrichment ratio is no more than 0.25.

On to TVWR, for which the enrichment ratio was 0.26.

Consider KDKC, for which the enrichment ratio was no more than 0.25.

Regarding TQTR, the enrichment ratio was no more than 0.25.

In the case of VIVS, the enrichment ratio was no more than 0.25.

Regarding YPTG, the enrichment ratio was no more than 0.25.

On to DFAA, for which the enrichment ratio was no more than 0.25.

For SPGM, the enrichment ratio was no more than 0.25.

In the case of NLGL, the enrichment ratio is no more than 0.25.

As to FHHI, the enrichment ratio was no more than 0.25.

Take EPRK: the enrichment ratio is no more than 0.25.

With VLVC, the enrichment ratio is no more than 0.25.

Take NCMQ: the enrichment ratio is no more than 0.25.

For the variant VWTC, the enrichment ratio is no more than 0.25.

On to AGIV, for which the enrichment ratio was found to be 14.4.

MEMM: the enrichment ratio was 0.38.

For the variant AASW, the enrichment ratio is no more than 0.25.

Regarding ELTM, the enrichment ratio is no more than 0.25.

On to FNGF, for which the enrichment ratio is no more than 0.25.

In the case of KRWW, the enrichment ratio was no more than 0.25.

Take YTGA: the enrichment ratio is no more than 0.25.

As to IARH, the enrichment ratio was no more than 0.25.

In the case of IIDL, the enrichment ratio was no more than 0.25.

For GFLN, the enrichment ratio was no more than 0.25.

In the case of NGVE, the enrichment ratio is no more than 0.25.

On to SAYV, for which the enrichment ratio is no more than 0.25.

With AKCE, the enrichment ratio was no more than 0.25.

On to MRAN, for which the enrichment ratio is no more than 0.25.

As for YRVY, the enrichment ratio was no more than 0.25.

As to HQPC, the enrichment ratio is no more than 0.25.

Consider ESDH, for which the enrichment ratio is no more than 0.25.

For RNPN, the enrichment ratio is no more than 0.25.

Consider IRSK, for which the enrichment ratio was no more than 0.25.

In the case of GYVE, the enrichment ratio is no more than 0.25.

Consider FGKK, for which the enrichment ratio was no more than 0.25.

Regarding VWMD, the enrichment ratio was no more than 0.25.

On to FKAG, for which the enrichment ratio was no more than 0.25.

In the case of QSEE, the enrichment ratio was no more than 0.25.

Take MWPA: the enrichment ratio was no more than 0.25.

In the case of DPWR, the enrichment ratio was no more than 0.25.

Regarding APKW, the enrichment ratio is no more than 0.25.

As for IHAP, the enrichment ratio was no more than 0.25.

With HFFG, the enrichment ratio is no more than 0.25.

On to VALR, for which the enrichment ratio was no more than 0.25.

On to ESMF, for which the enrichment ratio was no more than 0.25.

Consider EFLD, for which the enrichment ratio is no more than 0.25.

Take WGDW: the enrichment ratio was no more than 0.25.

As for NNVS, the enrichment ratio was no more than 0.25.

As for MNYY, the enrichment ratio was no more than 0.25.

Consider QSAW, for which the enrichment ratio is no more than 0.25.

In the case of THNP, the enrichment ratio was no more than 0.25.

Consider HNVR, for which the enrichment ratio is no more than 0.25.

For KTAI, the enrichment ratio was no more than 0.25.

For the variant NFFT, the enrichment ratio is no more than 0.25.

Take LCII: the enrichment ratio is no more than 0.25.

On to AQMP, for which the enrichment ratio was no more than 0.25.

Regarding FQWA, the enrichment ratio is no more than 0.25.

As for PHRA, the enrichment ratio is no more than 0.25.

In the case of KAHR, the enrichment ratio was no more than 0.25.

Regarding FCLG, the enrichment ratio was found to be 6.96.

As for LQGG, the enrichment ratio was no more than 0.25.

For the variant VYQE, the enrichment ratio is no more than 0.25.

As to SIRR, the enrichment ratio is no more than 0.25.

In the case of PMFV, the enrichment ratio was no more than 0.25.

Turning to MHLP, the enrichment ratio is no more than 0.25.

Regarding TWLD, the enrichment ratio is no more than 0.25.

As for DMYR, the enrichment ratio is no more than 0.25.

Consider TIMS, for which the enrichment ratio stood at 7.76.

In the case of GYMY, the enrichment ratio was no more than 0.25.

Consider VCPI, for which the enrichment ratio was no more than 0.25.

For LSWK, the enrichment ratio was no more than 0.25.

Turning to RVGE, the enrichment ratio is no more than 0.25.

In the case of TNSP, the enrichment ratio is no more than 0.25.

Take DWTN: the enrichment ratio is no more than 0.25.

For CFPF, the enrichment ratio is no more than 0.25.

Consider KCSY, for which the enrichment ratio is no more than 0.25.

As to SRIN, the enrichment ratio was no more than 0.25.

Regarding HQRA, the enrichment ratio was no more than 0.25.

Regarding SSLP, the enrichment ratio is no more than 0.25.

Take GFTV: the enrichment ratio was no more than 0.25.

In the case of RNNC, the enrichment ratio is no more than 0.25.

As to VKTL, the enrichment ratio was no more than 0.25.

For TKKN, the enrichment ratio was no more than 0.25.

Regarding HMPP, the enrichment ratio is no more than 0.25.

As to GELR, the enrichment ratio is no more than 0.25.

For the variant TQIA, the enrichment ratio was no more than 0.25.

For the variant YTWP, the enrichment ratio is no more than 0.25.

Take EYVD: the enrichment ratio was no more than 0.25.

With VIAL, the enrichment ratio was 0.917.

On to MMIV, for which the enrichment ratio was no more than 0.25.

In the case of GCYY, the enrichment ratio is no more than 0.25.

With FWLF, the enrichment ratio was no more than 0.25.

These data come from a collection of fitness landscapes (doi:10.1126/science.1257360).
